The inhibition is the drop in the measured response relative to a control, in per cent.

Among all 340,000 compounds or so, about 6,900 (2%) were called active. Cut-off read from the data, not from the text of the source: active = inhibition above about 30%; inactive = below that, where a call was filed. The entries are a selection whose mix differs from that of the whole data set. Entries without a call were filed so in the source.

For the experiment, the target named is D(2) dopamine receptor (Homo sapiens) (UniProt P14416). As to the kind of experiment: HTS Assay for Allosteric Antagonists of the Human D2 Dopamine Receptor: Primary Screen for Antagonists. Note: 0% is about no effect. Particulars: HEK293 TREx D2 cells, calcium flux, dopamine EC80; at 10 µM; stronger effect = higher value. A digest of the protocol: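 Calcium mobilization kinetics were recorded at 1 s intervals in tetracycline-induced HEK293 T-REx D2 cells, first for 180 s after compound addition and then 180 s after EC80 dopamine.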
Chain of UniProt P14416 (P14416 whole entry, looked up): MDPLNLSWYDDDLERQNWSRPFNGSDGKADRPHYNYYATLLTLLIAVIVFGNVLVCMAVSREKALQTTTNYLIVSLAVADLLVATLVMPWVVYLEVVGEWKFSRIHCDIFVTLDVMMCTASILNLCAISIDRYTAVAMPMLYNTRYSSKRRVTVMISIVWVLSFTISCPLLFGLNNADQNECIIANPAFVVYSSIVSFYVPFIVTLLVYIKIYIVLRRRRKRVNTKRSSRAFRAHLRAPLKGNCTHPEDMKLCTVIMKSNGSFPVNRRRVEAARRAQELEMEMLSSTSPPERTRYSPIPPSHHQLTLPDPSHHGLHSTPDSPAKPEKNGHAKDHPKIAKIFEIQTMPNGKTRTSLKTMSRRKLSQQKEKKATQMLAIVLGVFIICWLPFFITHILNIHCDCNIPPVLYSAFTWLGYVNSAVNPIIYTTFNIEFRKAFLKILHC
Regarding `O=C(NCCCc1nc2ccccc2n1Cc1ccc(Cl)cc1)c1ccco1`, the inhibition was determined as 0.904%. Then `O=C(Cn1cc(S(=O)(=O)Cc2ccc(F)cc2)c2ccccc21)NCc1ccccc1Cl`, with 13.7%. Then `Cc1ccccc1CSc1nnc2[nH]c(=O)cc(C)n12`, with 4.6%. For the compound `O=C(NC1CC(=O)N(c2ccc(Cl)cc2)C1)c1ccc(S(=O)(=O)N2CCCC2)cc1` (stereo not given), the inhibition amounted to 1.29%. As for `O=C(Cn1c(=O)nc(-c2ccccc2)c2ccccc21)NCCCc1ccccc1`, the inhibition came out at 28.1%. Then `COc1ccc(CCNC(=O)CS(=O)Cc2nc(-c3ccc(C)cc3)oc2C)c(OC)c1` (stereo not given), with -1.99%; and `COc1ccc(CCNC(=O)C(=O)NCC(c2ccco2)S(=O)(=O)c2ccccc2)cc1OC` (stereo not given), with -23.8%; and `CCc1cccc(C)c1NC(=O)CSc1nnc(N)s1`, with 6.4%. Then `CCOc1ccccc1NS(=O)(=O)c1cnc(N)nc1`, with 21.5%. With `Cc1ccc(C(CC(=O)Nc2cc(C)cc(C)c2)N2Cc3ccccc3C2=O)cc1` (stereo not given) the figure was 4.96%; with `CCS(=O)(=O)NCC(c1ccco1)N1CCN(c2ccc(OC)cc2)CC1` (stereo not given), 10%; with `O=C(c1ccco1)N1CCN(CCCCOc2cccc3ccccc23)CC1`, active: 83.6%. Consider `Cc1ccccc1CN1c2ccccc2-c2nc(SCC(=O)NCCc3ccccc3)ncc2S1(=O)=O`, for which the inhibition was -1.83%. With `CCN(CC)c1ccc(-n2nc3cc(C)c(NC(=O)c4ccccc4F)cc3n2)cc1` the figure was -7.22%. Regarding `CCCCc1ccc(NC(=O)COc2cccc3c(=O)n(C)ccc23)cc1`, the inhibition turned out to be 13.5%.

As to `CCOC(=O)c1c(C)c(-c2ccccc2)n(CC(=O)NCCc2ccc(C)cc2)c1C`, the inhibition is 13.8%. Regarding `Cc1ccc2nc(CSc3nnc(NC(=O)COc4ccccc4)s3)cc(=O)n2c1`, the inhibition was -3.49%. Take `CCOC(=O)c1ccc(NC(=O)c2cc(=O)c3cc(CC)ccc3o2)cc1`: the inhibition was found to be 11.3%. With `Cc1ccc(NC(=O)N2CCC(CN3CCC(C)CC3)CC2)cc1F` the figure was -3.48%; with `COc1ccc(-c2cc(C(F)(F)F)nc(SCC(=O)NCCc3ccc(OC)c(OC)c3)n2)cc1`, 0.0746%; with `Cn1c(CN2CCCCC2)nc2cc(NS(=O)(=O)c3ccc(F)cc3)ccc21`, active: 74.4%. With `CCCc1cc(=O)n2[nH]c(-c3ccc(C)cc3)nc2n1` the figure was -21.1%; with `COc1cccc(CNC(=O)C(NS(=O)(=O)c2ccc3nc(C)sc3c2)C(C)C)c1` (stereo not given), 8.2%. With `Cc1ccc(NC(=O)C2CCCN(c3nnc(-n4c(C)ccc4C)s3)C2)cc1Cl` (stereo not given) the figure was 6.43%. As to `CCc1ccc(NC(=O)CN2C(=O)C(c3ccccc3)=NC23CCCCCC3)cc1`, the inhibition is -1.89%.

For `CCc1ccc(NC(=O)N(Cc2ccc(C)cc2)Cc2cccn2-c2nnc(N3CCCC3=O)s2)cc1`, the inhibition is 12.1%. For the compound `COc1ccc(S(=O)(=O)N(C)Cc2nc(-c3cccc(C)c3)no2)cc1`, the inhibition amounted to 0.79%. With `O=C(CSc1nc2ccsc2c(=O)n1Cc1ccccc1F)NCc1ccccc1` the figure was 25.8%; with `Cc1ccc(S(=O)(=O)N(C)C)cc1NC(=S)Nc1ccc2[nH]c(=O)[nH]c2c1`, active: 48.9%. With `CCc1cccc(-n2nnc(-c3nc(-c4cccs4)no3)c2N)c1` the figure was 20.2%; with `CCC(=O)OCCCNc1nc(-c2ccc(Cl)cc2)nc2ccccc12`, -11.4%. Then `CC(=O)N1CCCc2cc(S(=O)(=O)N3CCN(c4ccc(F)cc4)CC3)ccc21`, with -13.3%; and `COc1cccc(OC)c1C(=O)Nc1cccc(-c2nc3cc(C)cc(C)c3o2)c1`, with 1.25%. On to `Clc1ccc2nc(-c3ccc(Br)o3)c(Nc3ccc4c(c3)OCCO4)n2c1`, for which the inhibition turned out to be 9.79%. Then `COc1ccc(NC(=O)c2noc3c2CSc2ccccc2-3)cc1Cl`, with 1.47%; and `CCC(=O)N1CCc2cc(Br)cc(S(=O)(=O)CCC(=O)NCCc3ccccc3Cl)c21`, with -11.5%; and `CN1CCN(C(c2cccc(Br)c2)c2sc3nc(-c4ccco4)nn3c2O)CC1` (stereo not given), with -13.4%. Turning to `CCOc1ccc(-c2nonc2NC(=O)c2ccc(C)cc2)cc1OCC`, the inhibition was -1.84%. With `O=C(Cc1csc2ccccc12)NCc1ccccc1F` the figure was -2.43%; with `CCOc1ccc(-c2nc(SCC(=O)Nc3ccc4c(c3)OCCO4)c(-c3ccc(F)cc3)[nH]2)cc1`, 11%; with `CC1CCc2onc(C(=O)N3CCN(c4cccc(C(F)(F)F)c4)CC3)c2C1` (stereo not given), 16.2%. Turning to `COc1ccc(-c2nc3ccccc3s2)cc1NC(=O)c1cc2ccccc2o1`, the inhibition is -2.11%. Then `COc1ccc(-n2nc(C(=O)N(C)C)nc2-c2ccccc2)cc1`, with active: 31.2%. Then `Cc1ccc(NC(=O)CCNS(=O)(=O)c2cccc3nsnc23)cc1`, with -7.78%. With `CN(CC(=O)Nc1ccc(F)cc1F)S(=O)(=O)c1ccc(C(=O)N2CCOCC2)s1` the figure was 13.1%; with `Cc1cc(C)c(/C=C/c2onc(C)c2S(=O)(=O)N2CCC(C(=O)N3CCN(c4ccc(Cl)cc4)CC3)CC2)c(C)c1`, 1.25%; with `Cc1ccc(NC(=O)Cn2c(C)cc(C)c(C#N)c2=O)cc1F`, -27.1%.

Regarding `Cc1ccc(C(=O)Nc2nc3n(n2)C(c2ccccc2)C=C(c2ccccc2)N3)cc1` (stereo not given), the inhibition turned out to be 7.89%. With `Cc1ccc2cccc(NC(=O)c3ccc(-c4cc(Cl)ccc4Cl)o3)c2n1` the figure was -11.1%; with `COc1cc(/C=N/NC(=O)CCC(=O)Nc2ccc(Br)cc2)ccc1O`, active: 31.9%; with `Cc1ccc(Cl)cc1N1CCN(C(=O)Cn2cnc3nc4c(cc3c2=O)CCCC4)CC1`, -15.2%. With `COc1ccc(OC)c(NC(=O)c2ccc3c(c2)c(C)c(C)n3Cc2ccc(F)cc2)c1` the figure was 3.62%. With `CCN(CC)C(=O)Cn1c(=O)n(CCCCCC(=O)NCc2ccccc2Cl)c(=O)c2sccc21` the figure was -3.84%; with `O=C(NCc1cccc(Br)c1)c1cccn1-c1nnc(N2CCCCC2)s1`, -9.39%; with `CCn1cc(S(=O)(=O)c2cc(C)cc(C)c2)c(=O)c2cc(F)c(N3CCC(C)CC3)cc21`, 10.4%. On to `CCOc1ccc(N(C(=O)c2ccc(C)cc2)S(=O)(=O)c2ccc3c(c2)n(C)c(=O)n3C)cc1`, for which the inhibition worked out at 13.9%. With `Cc1ccc2nc(-c3ccc(C)c(NC(=O)CSc4ccc(Cl)cc4)c3)oc2c1` the figure was -23.9%; with `CCCCn1c(/C=C/c2ccco2)nc2ccccc21`, active: 63.7%.

Consider `NC(=O)c1cc(S(=O)(=O)N2CCCCC2)cs1`, for which the inhibition worked out at 4.81%.

Turning to `CCNC(=O)CC1C(=O)N(c2ccc(C)cc2)C(=O)N1Cc1ccc(C)cc1` (stereo not given), the inhibition came to 2.97%. Take `O=C(CCS(=O)(=O)c1ccc2c(c1)NC(=O)CO2)Nc1cccc(C(F)(F)F)c1`: the inhibition is -6.88%. Then `COc1ccc(CCn2c3c(c(=O)[nH]c2=O)C(NC(=O)c2ccccc2)(C(F)(F)F)C(=O)N3)cc1OC` (stereo not given), with -3.01%; and `COc1ccc(NC(=O)Cn2nnc(C(=O)NCc3ccccc3Cl)c2N)cc1Cl`, with -0.385%; and `Oc1ccc(Cl)cc1Nc1nc2ccccc2n2cnnc12`, with 3.51%.

Take `COc1ccc(CNC(=O)CCCc2cn(C)c3ccccc23)c(OC)c1`: the inhibition was 28.1%. Then `O=C(CC(c1ccccc1)c1cc(Br)ccc1O)NCC1(c2ccccc2)CCCC1` (stereo not given), with -1.29%. `CCOC(=O)c1ccc(NC(=O)Cc2ccc(-n3c(CC)nc4cccnc43)cc2)cc1`: the inhibition is 5.86%. With `COc1ccc(NC(=O)CN(C)C(=O)c2cc(C3CC3)nn2-c2ccccc2)cc1` the figure was active: 39.5%; with `COc1ccccc1N(Cc1cc2cccc(C)c2[nH]c1=O)C(=O)c1cccc(Cl)c1`, -0.673%. Regarding `COC(=O)c1cc2oc(C)cc2n1CC(=O)Nc1ccc(C)cc1C`, the inhibition stood at 9.82%. Then `Cc1ccc(/C=C/c2onc(C)c2S(=O)(=O)N2CCC(C(=O)N3CCOc4ccccc43)CC2)cc1`, with -7.86%; and `O=C(Cn1c(=O)n(Cc2ccccc2)c(=O)c2oc3ccccc3c21)Nc1ccc(Cl)cc1`, with -1.54%. With `Cc1nc(-c2ccc(F)cc2)sc1CCNC(=O)c1ccco1` the figure was 1.71%. Then `Cc1cc(C)cc(NC(=O)Cn2nnc(C(=O)Nc3cc(C)cc(C)c3)c2N)c1`, with 9.64%; and `CCc1ccc(CNC(=O)CCN2C(=O)COc3ccccc32)cc1`, with 2.64%; and `CCOC(=O)c1cc(-c2ccccc2)n(CCCC(=O)Nc2cccc(Cl)c2C)c1C`, with -3.13%.

Turning to `CSc1ccc(CCNC(=O)C(C)n2c(C)c3cnn(-c4ccccc4)c(=O)c3c2C)cc1` (stereo not given), the inhibition is 0.776%. With `COc1cc(OC)cc(C(=O)Nc2c(C(=O)Nc3ccc(F)cc3)oc3ccccc23)c1` the figure was 6.92%; with `COc1cc(NC(=O)Cn2c(C)cc3ccccc3c2=O)cc(OC)c1OC`, -8.29%; with `COCC1CCN(Cc2cn(-c3ccccc3F)nc2-c2cc(C)sc2C)CC1`, active: 73.5%. With `O=[N+]([O-])c1ccc2ncnc(N3CCN(Cc4ccc5c(c4)OCO5)CC3)c2c1` the figure was active: 101%. Then `Cc1ccc(-c2c3c(=O)n(C)c(=O)n(C)c3c3c(C(F)(F)F)nc4ccccc4n23)cc1`, with 18.1%; and `Cc1c(NC(=O)c2sc3c([N+](=O)[O-])cccc3c2Cl)cccc1-c1nc2ccccc2o1`, with 2.27%; and `COc1cc(CNC(=O)c2cc3n(n2)CCCN(Cc2ccc(C)cc2)C3=O)cc(OC)c1OC`, with -13.4%. Take `CS(=O)(=O)N(CC(=O)Nc1cccc([N+](=O)[O-])c1)c1ccccc1F`: the inhibition is active: 44.4%. With `CCS(=O)(=O)N1CC(=O)N(c2cccc(C)c2C)C(C)(C(=O)NC2CCCCC2)C1` (stereo not given) the figure was 9.87%. `CCOC(=O)c1[nH]c(C)c(CCC(=O)Nc2ccc(N(CC)CC)cc2C)c1C`: the inhibition was -1.82%. For the compound `CC(C)c1ccc(NC(=O)c2ccc(NC(=O)CCS(=O)(=O)c3cccs3)cc2)cc1`, the inhibition was 3.36%. With `Cc1ccc(CCNc2nc3c(S(=O)(=O)c4ccc(C)cc4)nnn3c3ccsc23)cc1` the figure was -3.05%. Then `CC(=O)Oc1c(Br)cc(N(C(C)=O)S(=O)(=O)c2ccccc2)c2ccccc12`, with active: 32.9%; and `Cc1ccc(-n2ncc3c(NCCCc4ccccc4)ncnc32)cc1C`, with -15.5%; and `Cn1c(CCN2CCN(c3ccccn3)CC2)nc2cc(NC(=O)COc3ccc([N+](=O)[O-])cc3)ccc21`, with active: 30.8%. With `CCc1ccc2occ(CC(=O)NCc3ccccc3)c2c1`, the inhibition is 13.5%. With `CCOc1ccccc1C(=O)Nc1cc2c(cc1C)n(C)c(=O)c(=O)n2C` the figure was 1.65%; with `COc1ccc(-c2nc3sc(CCNC(=O)c4ccc(C(C)(C)C)cc4)c(C)n3n2)cc1`, 27.8%.
